# Measurements published in paper PMC4336329 (PLoS ONE, 2015).
# Among all 310,000 compounds or so, about 2,200 (0.71%) showed an effect of 50% or more. The effect is printed as a negative number. This is one part of the list.
# Target: human ether-à-go-go-related gene (hERG) potassium channel (human, UniProt Q12809)
# Experiment: primary screen, population patch clamp on CHO cells stably expressing hERG
# Sequence of human ether-à-go-go-related gene (hERG) potassium channel (Q12809 whole entry, looked up): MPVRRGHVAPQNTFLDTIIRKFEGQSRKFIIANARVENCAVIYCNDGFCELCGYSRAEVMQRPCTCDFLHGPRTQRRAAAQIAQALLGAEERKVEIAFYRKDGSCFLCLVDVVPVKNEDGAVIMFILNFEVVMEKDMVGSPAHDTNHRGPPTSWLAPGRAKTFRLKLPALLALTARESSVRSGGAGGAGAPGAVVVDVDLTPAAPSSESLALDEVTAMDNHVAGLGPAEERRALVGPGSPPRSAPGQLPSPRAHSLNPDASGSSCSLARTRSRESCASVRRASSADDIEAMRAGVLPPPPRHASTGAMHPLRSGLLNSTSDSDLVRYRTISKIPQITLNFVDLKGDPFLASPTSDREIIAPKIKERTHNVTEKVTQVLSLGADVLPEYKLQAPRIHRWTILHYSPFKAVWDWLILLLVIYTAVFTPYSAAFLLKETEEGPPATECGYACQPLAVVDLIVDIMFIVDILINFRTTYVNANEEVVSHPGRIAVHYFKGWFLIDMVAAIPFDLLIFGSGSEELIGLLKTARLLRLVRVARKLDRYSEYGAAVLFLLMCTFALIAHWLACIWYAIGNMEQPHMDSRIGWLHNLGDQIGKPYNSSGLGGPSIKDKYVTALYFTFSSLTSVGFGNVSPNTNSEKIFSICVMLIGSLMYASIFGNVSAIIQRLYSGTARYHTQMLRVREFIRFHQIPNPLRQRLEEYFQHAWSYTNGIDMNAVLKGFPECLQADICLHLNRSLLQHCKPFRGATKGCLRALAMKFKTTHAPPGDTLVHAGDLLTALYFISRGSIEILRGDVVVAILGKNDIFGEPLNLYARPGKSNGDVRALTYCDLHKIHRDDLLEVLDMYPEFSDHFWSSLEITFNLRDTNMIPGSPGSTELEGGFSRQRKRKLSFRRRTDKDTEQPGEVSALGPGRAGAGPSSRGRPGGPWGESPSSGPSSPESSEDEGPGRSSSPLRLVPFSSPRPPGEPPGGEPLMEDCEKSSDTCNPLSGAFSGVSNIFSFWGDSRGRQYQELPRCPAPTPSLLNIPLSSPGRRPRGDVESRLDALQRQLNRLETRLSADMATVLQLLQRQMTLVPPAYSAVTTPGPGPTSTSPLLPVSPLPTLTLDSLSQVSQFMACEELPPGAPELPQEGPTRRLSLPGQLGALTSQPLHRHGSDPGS
row,Compound,"hERG current change (%, negative = inhibition) at 1uM [%]"
1,COc1ccc(Cc2noc(-c3ccc(OC)c(OC)c3)n2)cc1OC,2.98
2,O=C(CSc1nnc(-c2ccncc2)o1)Nc1cccc(F)c1,8
3,COc1ccc(Cl)cc1NC(=S)N1CCN(C(=O)c2ccco2)CC1,6.99
4,O=C(NCC(c1ccco1)N1CCOCC1)c1ccc(F)c(F)c1 (stereo not drawn),5.36
5,O=C(NC(=S)Nc1cccc2cccnc12)c1ccccc1,14.9
6,CCN(CC)S(=O)(=O)c1ccc(-c2nnc(SCC(=O)Nc3nnc(C)s3)n2CC)cc1,14
7,O=C1c2ccccc2C(=O)C1c1ccc(Cl)cc1,1.34
8,CCC(=O)Nc1ccc(N2CCN(CC)CC2)c(Cl)c1,8.56
9,COc1ccc(-c2[nH]ncc2CNC(C)c2cn(C)nc2C)c(F)c1 (stereo not drawn),10.2
10,COc1ccc(C(c2nnnn2Cc2cccs2)N2CCN(c3ccccc3F)CC2)cc1OC.Cl (stereo not drawn),-3.85
11,COc1ccccc1N1CCN(c2ccnc3cc(Cl)ccc23)CC1,7.78
12,COc1ccc(C2SCCN2S(=O)(=O)c2ccc(NC(C)=O)cc2)cc1OC (stereo not drawn),5.42
13,COc1ccc(CC(=O)NNC(=O)c2ccc(NC(C)=O)cc2)cc1,15.4
14,O=C(c1nnc(-c2ccccc2)o1)C1CC1,13.4
15,O=C(Nc1c(-c2ccccc2)nc2sccn12)c1ccccc1,10.4
16,CCOC(=O)Cc1csc(NC(=O)c2ccc(NC(C)=O)cc2)n1,10.4
17,O=C1CN(C(=O)c2cc([N+](=O)[O-])ccc2Cl)C(c2ccc(F)cc2)c2cc(F)ccc2N1 (stereo not drawn),-4.16
18,Cc1cc(C)c2c(N)c(C(=O)NN3CC(=O)N(c4ccccc4F)CC3=O)sc2n1,6.81
19,Cc1ccc(CN2CCN(Cc3cnc(N(C)C)s3)CC2CCO)o1 (stereo not drawn),11.2
20,Cc1cc(-n2c(C)cc(C(=O)COc3ccc4ccc(=O)oc4c3)c2C)no1,11.9
21,CC(C)(C)c1ccc(C(=O)CSc2n[nH]c(=O)[nH]c2=O)cc1,11.5
22,COCCNC(=S)Nc1cc2oc3ccccc3c2cc1OC,11.2
23,COc1cccc(CNC(=O)C2Cc3cc(S(=O)(=O)N4CCCC4)ccc3N2C(C)=O)c1OC (stereo not drawn),1.37

row,Compound,"hERG current change (%, negative = inhibition) at 1uM [%]"
1,Nc1ccc(-c2nc3c(Cl)c(N)ccc3[nH]2)cc1,3.01
2,COc1ccc(S(=O)(=O)N2CCN(Cc3cccc(F)c3)CC2)cc1,14.2
3,CCC(=O)N1CCc2cc(S(=O)(=O)NC(C(=O)NC(C)c3ccccc3)C(C)C)ccc21 (stereo not drawn),14.8
4,CCc1ccccc1NC(=O)c1cc(C)no1,14.3
5,COc1ccc(-c2nsc3c(N4CCCCC4C)ncnc23)cc1 (stereo not drawn),6
6,CCCCOC(=O)Nc1sc2nc(C)cc(C)c2c1-n1cccc1,9.04
7,O=C(NCCCO)C(=O)Nc1ccc2c(c1)N(S(=O)(=O)c1cccs1)CCC2,7.02
8,Cn1c(=O)[nH]c(=O)c2c1nc(N(CCO)Cc1ccccc1)n2CCCc1ccccc1,-17.3
9,COc1ccc(Br)c(C(=O)Nc2cccc(S(=O)(=O)N3CCOCC3)c2)c1,8.66
10,COc1cc(Cl)ccc1OCc1cc(C(=O)N(C)Cc2cn(C)nc2C)no1,3.2
11,COc1ccc(CNC(=O)c2c(O)c3ccccc3n(C)c2=O)cc1,5.51
12,N#C/C(=C\c1cc(Br)ccc1F)C(=O)NC1CC1,-11.5
13,O=c1c2ccccc2nc2ccccn12,37.6
14,Cc1ccccc1NC(=O)Nc1ccc2c(c1)CCC2,14.8
15,CC(C)n1cc(/C=C2\NC(=O)N(c3cccc(Cl)c3)C2=O)c2ccccc21,1.55
16,Cc1cccc(-n2c(/C=C/c3ccc([N+](=O)[O-])o3)nc3ccccc3c2=O)c1,2.06
17,CC(C)n1cnc2cc(NCc3nc4ccccc4n3C)ccc21,4.71
18,CC[C@@H](C)CN1C(=O)N[C@@H](c2ccccc2)C(C(C)=O)=C1C,6.22
19,Cc1cccc2c1-c1sc(C(=O)Nc3ccccc3N3CCN(C)CC3)cc1CO2,1.32
20,Cc1ccc([N+](=O)[O-])cc1NC(=O)CCCOc1ccccc1,9.58
21,O=C(Nc1ccc(-c2ccc(N3CCCCC3)nn2)cc1)c1ccco1,11.9
22,NC(=O)C1=C[C@H](c2ccc3c(c2)OCO3)C[C@H](OCc2ccc(CO)cc2)O1,5.97
